In the supplement of paper PMC4166925:
± gives the standard deviation of the averaged measurements. The full ranking holds about 33,000 sequences; the median of “E-score (dimensionless, -0.5 to 0.5)” is about -0.049, and the highest 2% start at about 0.37. This is one part of the list.

System: T1, PmTbr T-box DNA-binding domain (GST fusion)
T1 sequence: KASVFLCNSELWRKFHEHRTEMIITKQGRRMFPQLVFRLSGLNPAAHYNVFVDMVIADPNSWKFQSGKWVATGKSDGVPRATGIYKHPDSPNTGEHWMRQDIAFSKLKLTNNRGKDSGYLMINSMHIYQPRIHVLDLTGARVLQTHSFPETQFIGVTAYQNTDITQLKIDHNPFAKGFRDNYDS
Experiment: PBM E-score of 8-mer (E-score (dimensionless, -0.5 to 0.5)); Tbr is Tbrain of the sea star Patiria miniata (Pm) or the sea urchin Strongylocentrotus purpuratus (Sp); higher = stronger binding preference; most listed sequences are background and not binding sites
Conditions: the construct has about 5 more residues each side
Procedure: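 Universal protein-binding microarray (Agilent AMADID 016060, 60-bp probes with a 35-bp variable region) incubated with 200 nM GST-fused Patiria miniata Tbr T-box DNA-binding domain (residues 272-466) in PBS pH 7.5. Scored for every ungapped 8-mer (given with its reverse complement) by the Universal PBM Analysis Suite as E-score (modified Wilcoxon-Mann-Whitney enrichment, range -0.5 to 0.5; >0.45 counts as bound) and Z-score of median probe intensity. Two replicate arrays (datasets 1 and 2).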
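Further: 200 nM protein in PBS on universal arrays averaged over duplicate arrays.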

Sequence	PBM E-score of 8-mer
CTAGAACA	-0.0837 ± 0.0058
ACCTTAGC	0.252 ± 0.015
GGGCCCCC	-0.299 ± 0.014
AACCCCGA	-0.271 ± 0.03
TGAGCGAA	0.177 ± 0.0095
AGGGTCAT	-0.0736 ± 0.064
AGCGTACG	-0.087 ± 0.0085
GTGTAGTA	0.0477 ± 0.032
CTGGCTGA	-0.152 ± 0.059
AACGTCGT	-0.0814 ± 0.015
AGTCGCAA	0.147 ± 0.026
ATTAATAG	-0.0474 ± 0.045
AAGGCCCT	-0.238 ± 0.054
CCCACCAA	-0.112 ± 0.048
CTCAAAGC	-0.159 ± 0.022
AGTTGGAA	-0.0877 ± 0.14
AATCGGTA	-0.242 ± 0.027
GAATGTGA	0.305 ± 0.018
CATTCGCA	0.3497 ± 0.0027
TCACCTAA	0.383 ± 0.0065
GAGAGCTC	-0.177 ± 0.055
AATCGCGT	0.169 ± 0.035
CTCCACTA	-0.0227 ± 0.0055
AGATCCAG	-0.00199 ± 0.0063
ATCAGTTC	-0.0319 ± 0.0033

Sequence	PBM E-score of 8-mer
CGCCAGCA	0.083 ± 0.035
TATATGCA	-0.143 ± 0.024
GTAGTAGA	-0.22 ± 0.028
CAACAACA	0.226 ± 0.017
GCTGGCGA	0.112 ± 0.016
CAGTGGAC	-0.0736 ± 0.045
ATGCCTCA	-0.142 ± 0.028
CGGAGCAG	-0.0313 ± 0.049
AGTACGAA	-0.0114 ± 0.036
TAGTCGAA	-0.00998 ± 0.08
CGGCGAGA	0.031 ± 0.0096
ATGCCACC	0.266 ± 0.011
CTACATAC	-0.218 ± 0.057
ATTATAGC	-0.0536 ± 0.12
AATGCCAG	-0.228 ± 0.0099
CCTGCATC	-0.1993 ± 0.0017
ACGATACT	0.00195 ± 0.027
ATGCGTAG	-0.0957 ± 0.053
GTCGTTCA	0.19 ± 0.052
GATTTAAC	-0.133 ± 0.12
CTACGGCA	-0.132 ± 0.1
CCGGCCAA	-0.181 ± 0.0093
CTGTGTTA	0.158 ± 0.045
GGTTTCTA	-0.163 ± 0.024
ATTATCCA	-0.0843 ± 0.037

Sequence	PBM E-score of 8-mer
CTGTAGGC	-0.107 ± 0.05
TCTCATCA	0.157 ± 0.0043
ATTAATCG	-0.0134 ± 0.041
GGCTCTGA	-0.0831 ± 0.092
ATCACTTA	0.194 ± 0.042
GTGGGGCA	-0.0565 ± 0.067
CTACACTA	0.133 ± 0.0017
GGTGTAAA	0.418 ± 0.0026
CACGTTAC	0.262 ± 0.0086
CTTACTTA	-0.14 ± 0.026
ACAGGTCG	0.134 ± 0.0071
AACCAACC	-0.0194 ± 0.01
ATAGTTAC	-0.128 ± 0.069
AATTGTGG	0.097 ± 0.045
ATATACCC	-0.245 ± 0.015
CGCGAGCG	0.181 ± 0.056
ATGAGAAT	-0.081 ± 0.051
AAGACACT	0.0303 ± 0.11
AGGTCTGG	0.0461 ± 0.012
CTATACAG	-0.125 ± 0.016
CGCACGAG	0.0871 ± 0.03
AGTTCTTA	-0.0572 ± 0.018
CGGTGCGC	-0.0966 ± 0.03
CACTGCTC	0.115 ± 0.063
CACGTCTA	0.158 ± 0.028

Sequence	PBM E-score of 8-mer
GGTTATAC	0.0979 ± 0.001
AATCTTTC	-0.173 ± 0.04
GCACCCTA	0.133 ± 0.089
AATCCGTA	-0.157 ± 0.0019
AATCACTG	0.0986 ± 0.031
GTATGAAC	-0.118 ± 0.075
ATACACTG	-0.109 ± 0.095
ACACTCGG	0.229 ± 0.0048
GCTGGGAC	-0.0497 ± 0.038
GACATACC	-0.0855 ± 0.077
AGAAAGCT	0.0587 ± 0.053
GGGACTGA	-0.096 ± 0.00096
CTGGATGA	0.000185 ± 0.057
CCGCTAGA	0.0332 ± 0.029
AGAAGGTG	0.403 ± 0.0068
AGTAGGAG	-0.0167 ± 0.02
GGGGTAAA	-0.0507 ± 0.079
AACAGTCC	-0.0238 ± 0.078
AGATCGCA	0.23 ± 0.045
ACGGACCT	-0.224 ± 0.02
GGCGGGCA	-0.112 ± 0.086
AGGAAGCG	-0.085 ± 0.008
AGGCATCA	-0.186 ± 0.053
CGAAGAGA	-0.227 ± 0.028
ACGCCCAG	0.114 ± 0.025

Sequence	PBM E-score of 8-mer
CCGCACCC	0.221 ± 0.074
CGCCGACC	0.0208 ± 0.052
TCAGATAA	-0.0868 ± 0.048
AGTCCCCG	-0.176 ± 0.034
AATTGATC	0.104 ± 0.038
AGTGAGAT	0.287 ± 0.016
CATAAGGG	-0.145 ± 0.052
CCGCTGGC	-0.0268 ± 0.024
GAAACACC	0.297 ± 0.0084
GCCCACTA	-0.0431 ± 0.011
AGCCTATA	-0.0286 ± 0.017
AGGGTCGG	-0.000775 ± 0.089
CGGGTATA	-0.00855 ± 0.0038
AGAGCACT	-0.194 ± 0.044
CCCTTGCG	-0.0476 ± 0.039
ATGCGTAA	-0.00762 ± 0.04
TATACCCA	-0.211 ± 0.064
CGCAAGTC	0.139 ± 0.039
AGTGTATC	-0.0481 ± 0.042
AGAGGCGG	-0.0446 ± 0.11
ATGACCGA	0.0114 ± 0.018
CTACCCGA	-0.172 ± 0.018
AAAAGTTC	-0.00649 ± 0.083
ATTTTCTA	-0.195 ± 0.053
GGTACCAA	-0.0257 ± 0.097

Sequence	PBM E-score of 8-mer
AAACTCTG	-0.0274 ± 0.017
CGGGCACC	0.0329 ± 0.042
CGTACTAG	-0.204 ± 0.011
GGACCTTA	-0.162 ± 0.056
CCCTAGGC	-0.0806 ± 0.029
TAGTGAAA	0.144 ± 0.048
CACTGTCC	-0.142 ± 0.032
GTACTTTA	-0.0494 ± 0.044
CCCAGCCG	-0.11 ± 0.068
AACTGATA	0.19 ± 0.042
CTGCAACC	-0.0498 ± 0.05
CATTTGAA	-0.259 ± 0.014
CTCTCCGC	-0.0355 ± 0.036
CGTGCTGC	0.0759 ± 0.13
AATAGATG	-0.0568 ± 0.06
GTTAGTTA	0.104 ± 0.082
GCCGAGCC	0.0237 ± 0.029
ACACTCGA	0.313 ± 0.025
AGGTAGAA	0.0299 ± 0.024
AAAAGGGC	0.0277 ± 0.022
CGAGTTGA	0.171 ± 0.026
GCACGGAA	0.0176 ± 0.024
GCGCATCA	-0.0961 ± 0.041
GGGACTAA	-0.236 ± 0.08
AAAGGTGC	0.422 ± 0.015

Sequence	PBM E-score of 8-mer
AGCTGCTC	-0.075 ± 0.024
CAGCTTAC	-0.0417 ± 0.036
AAGTCCAA	-0.257 ± 0.052
ATCGTACC	-0.248 ± 0.06
GGTAGGCA	-0.0316 ± 0.006
CACGCAAA	0.136 ± 0.029
AATTTCCA	-0.166 ± 0.039
TACAGGGA	-0.149 ± 0.018
AAGCGACC	-0.19 ± 0.025
CGTCGGAC	0.0591 ± 0.071
GGGGGCTA	-0.13 ± 0.017
AGAACTGG	-0.0956 ± 0.021
AACGACCA	0.121 ± 0.039
AATGGCAT	-0.0195 ± 0.013
AATACTGA	-0.0363 ± 0.029
GGAGGACA	-0.222 ± 0.065
ATGCTTCA	-0.068 ± 0.099
GGACCAGA	-0.258 ± 0.049
TAAGACCA	-0.116 ± 0.019
ACATACGG	0.0556 ± 0.024
GGTCTAAA	0.067 ± 0.011
CTCCACCA	-0.218 ± 0.015
